In assay [1] the target is VN-Dock180 (full length), in MDCK cells (UniProt Q14185). Nature of the assay: split reporter; BiFC with split Venus (VN and VC fusions) co-transfected into MDCK cells plated on fibronectin coated coverslips; fixed after 18 hours; YFP fluorescence.
In assay [2] the target is VN-flag-Del80-Dock180 (truncation of the first 80 amino acids, lacks the SH3 domain), in HEK 293 (UniProt Q14185). Nature of the assay: co-IP; HEK 293 cells co-transfected with Dock180 and GRASP constructs; lysis in 50 mM Tris pH 7.5, 150 mM NaCl, 1% Triton X-100; Dock180 immunoprecipitated with M2 anti-flag resin overnight at 4 °C; Western blot. Background: A western blot detects proteins with antibodies after separation by electrophoresis.

Protein sequences, listed by entry. Tags and fused reporters are not part of them.
UniProt Q99418: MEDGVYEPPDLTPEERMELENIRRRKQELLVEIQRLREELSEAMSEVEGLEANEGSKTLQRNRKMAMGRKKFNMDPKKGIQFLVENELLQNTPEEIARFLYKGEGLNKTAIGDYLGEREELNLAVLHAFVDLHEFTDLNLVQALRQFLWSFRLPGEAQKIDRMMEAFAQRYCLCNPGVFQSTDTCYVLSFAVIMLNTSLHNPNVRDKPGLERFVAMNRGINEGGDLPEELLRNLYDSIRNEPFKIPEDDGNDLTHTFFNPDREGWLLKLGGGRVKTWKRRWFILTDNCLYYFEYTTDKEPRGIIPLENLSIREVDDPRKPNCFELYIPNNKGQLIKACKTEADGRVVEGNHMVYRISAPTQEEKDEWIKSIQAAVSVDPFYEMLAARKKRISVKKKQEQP

The target of assay [3] is VN-flag-Dock180 (full-length), in HEK 293 (UniProt Q14185). Described as above.
Assay [4] deals with flag-tagged Dock180 (wild type) (UniProt Q14185). The description is as above.
The target of assay [5] is T1, Flag-Dock180 N-terminal 80 amino acids (SH3 domain) (UniProt Q14185).
T1 sequence: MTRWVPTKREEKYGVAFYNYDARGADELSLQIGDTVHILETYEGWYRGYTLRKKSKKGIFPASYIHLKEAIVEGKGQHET
As to the kind of experiment: pull-down; Flag-Dock180 (N-terminal 80 amino acids) held on M2-Flag resin; eluted GST-GRASP added in TBS, rotated 2 hours at 4 °C; M2-Flag gel alone as control; GelCode staining and Western blot; both purified.

In assay [6] the target is VN-Del80-Dock180, in MDCK cells (UniProt Q14185). As to the kind of experiment: split reporter; BiFC with split Venus (VN and VC fusions) co-transfected into MDCK cells plated on fibronectin coated coverslips; fixed after 18 hours; YFP fluorescence.
Another assay has as its target VN-cytohesin 2 (UniProt Q99418). Described as above.

These are yes or no findings as the source states them, for the method shown. For some assays here: Binding seen in cells or lysates may run through a third protein. Some results given as binding are weak or reduced against the parent protein; the word gives no strength. For some assays here: Tags and fused reporters may be left off the sequences shown.

B1: VC-GRASP lacking the first 82 amino acids of GRASP (domain or fragment, UniProt Q7Z6J2 83-395)
chain: GSGFRWKNLSQSPEQQRKVLTLEKEDNQTFGFEIQTYGLHHREEQRVEMVTFVCRVHESSPAQLAGLTPGDTIASVNGLNVEGIRHREIVDIIKASGNVLRLETLYGTSIRKAELEARLQYLKQTLYEKWGEYRSLMVQEQRLVHGLVVKDPSIYDTLESVRSCLYGAGLLPGSLPFGPLLAVPGRPRGGARRARGDADDAVYHTCFFGDSEPPALPPPPPPARAFGPGPAETPAVGPGPGPRAALSRSASVRCAGPGGGGGGGAPGALWTEAREQALCGPGLRKTKYRSFRRRLLKFIPGLNRSLEEEESQL
As for B1, in assay [1], the binding entry is on record as “no binding”.

B2: HA-tagged wild type GRASP (protein, UniProt Q7Z6J2 1-395)
chain: MTLRRLRKLQQKEEAAATPDPAARTPDSEVAPAAPVPTPGPPAAAATPGPPADELYAALEDYHPAELYRALAVSGGTLPRRKGSGFRWKNLSQSPEQQRKVLTLEKEDNQTFGFEIQTYGLHHREEQRVEMVTFVCRVHESSPAQLAGLTPGDTIASVNGLNVEGIRHREIVDIIKASGNVLRLETLYGTSIRKAELEARLQYLKQTLYEKWGEYRSLMVQEQRLVHGLVVKDPSIYDTLESVRSCLYGAGLLPGSLPFGPLLAVPGRPRGGARRARGDADDAVYHTCFFGDSEPPALPPPPPPARAFGPGPAETPAVGPGPGPRAALSRSASVRCAGPGGGGGGGAPGALWTEAREQALCGPGLRKTKYRSFRRRLLKFIPGLNRSLEEEESQL
Consider B2, for which the binding entry in assay [2] is “no binding”; in assay [3], “binds”; in assay [4], “binds”.

B3: GST-GRASP (full length GRASP fused to GST) (protein, UniProt Q7Z6J2 1-395)
chain: B2 chain
In the case of B3, the binding result in assay [5] was “binds”.

B4: VC-GRASP (protein, UniProt Q7Z6J2 1-395)
chain: B2 chain
Regarding B4, the binding entry in assay [6] is listed as “no binding”; in assay [1], “binds”; in the assay with VN-cytohesin 2 it was “binds”.

The values above are taken from publication PMC3599651.
